{"source": "patent US20110269811A1", "about": "“INHIBITORS OF SEMICARBAZIDE-SENSITIVE AMINE OXIDASE (SSAO) AND VAP-1 MEDIATED ADHESION USEFUL FOR TREATMENT AND PREVENTION OF DISEASES” (priority 2006, published 2011)", "system": "Na^+ channel (site 2)", "settings": "10 uM Concentration of Compound I-1-Z", "experimental": "For Table 4 below, the specific ligand binding to the receptors is defined as the difference between the total binding and the nonspecific binding determined in the presence of an excess of unlabelled ligand. The results are expressed as a percent inhibition of control specific binding obtained in the presence of Compound I-1-Z. The IC50 values (concentration causing a half-maximal inhibition of control specific binding) and Hill coefficients (nH) were determined by non-linear regression analysis of the competition curves using Hill equation curve fitting. The inhibition constants (Ki) were calculated from the Cheng Prusoff equation (Ki=IC50/(1+(L/KD)), where L=concentration of radioligand in the assay, and KD=affinity of the radioligand for the receptor). In each experiment, the respective reference compound was tested concurrently with Compound I-1-Z in order to assess the assay suitability."}
{"smiles": "COc1ccc(C/C(=C/F)CN)cc1.Cl", "note": "[Compound I-1-Z, (Z)-3-Fluoro-2-(4-methoxybenzyl)-allylamine hydrochloride]", "values": [{"measurement": "Mean Value, percent inhibition of control specific binding: Na^+ channel (site 2)", "result": 9, "unit": "%"}]}
